Experimental data: patent US10556926B2, “Synthetic artificial peptides with antimicrobial effect” (priority 2014, dated 2020)
Not every detail of the peptide structures is certain; ends, links or a residue may be inferred. No end group written: not given here.

Key:
E. coli ML-35p [1] = assay: Kinetics of permeabilization of the inner bacteria membrane (ONPG); type: cell-based, Escherichia coli
Method: (§1) The ability of the antimicrobial peptides for the respective permeabilization of the outer and inner bacteria membrane was tested by way of example on E. coli ML-35p (made available by Dr. R. E. Lehrer, Center for Health Sciences, Los Angeles, Calif., USA). The peptides were incubated in serial dilution with E. coli ML-35p and the time-dependent release of cell-internal components was measured in a slightly modified protocol according to Ericsson et al. (2002). For this purpose, the bacteria were cultured in Luria-Bertani (LB) medium with 100 μg/ml ampicillin (Fluka, Taufkirchen, Germany) until reaching an optical density of 0.4 at 600 nm wavelength. Then, the cells were washed three times by centrifugation at 4000 g for 1 min and subsequent up-take in 10 mM HEPES buffer pH 7.2. Finally, the cells were diluted to an optical density of 0.3 at 600 nm wavelength. To measure the permeabilization of the outer membrane, nitrocefin (Merck, Darmstadt, Germany) was diluted in HEPES buffer to a concentration of 60 μg/ml. The antimicrobial peptides were diluted in HEPES buffer to an end concentration of 12 μM, 24 μM, 48 μM and 96 μM end concentration. In the next step, 50 μl of nitrocefin were admixed with 50 μl of antimicrobial peptide and 50 μl of bacteria suspension such that an end concentration of 20 μg/ml of nitrocefin, 4 μM to 32 μM of antimicrobial peptide and bacteria with an optical density of 0.1 to 600 nm were present. The samples were mixed and the absorption at 500 nm wavelength was measured directly over a period of at least 90 min at 37° C. with regular shaking in a FLUOstar omega Microplate Reader (BMG Labtech, Ortenberg, Germany). The investigation of the permeabilization of the inner membrane was carried out in the same way except that instead of the nitrocefin accordingly 0-nitrophenyl-beta-D-galactoside (ONPG, Sigma-Aldrich) in an end concentration of 100 μg/ml was used and the absorption change was determined at a wavelength of 420 nm. The control used was samples without antimicrobial peptide, the positive control used for the membrane permeabilization was polymyxin B (Sigma-Aldrich) in an end concentration of 5 μM. For the data evaluation, firstly the measurement values of the corresponding negative controls were deducted from the measurement values of the samples, and the difference was then divided by the corresponding measurement values of the permeabilization control. Then, a graphical evaluation was carried out, the calculated values being plotted against the peptide concentration and being fitted with the help of the Origin Pro 8.1 G Software (OriginLab) according to a sigmoidal model. As representative examples, FIGS. 4 and 5 show the graphical evaluation for the kinetic investigation of the permeabilization of the outer E. coli bacteria membrane for the peptides N4 (FIG. 4) and O1 (FIG. 5).
(§2) As comparison parameter between the peptides, the times were ascertained from this at which 50% of the final signal level was reached. For this purpose, the equation with the percentage membrane permeabilization y, the time x in minutes, the lower plateau A1, the upper plateau A2, the point of inflection Log X0 and the Hill incline p
(§3) [formula] was used. The calculation of the parameters A1, A2, Log X0 and p was performed by the program by reference to the compensating curve. Further resolution of equation 5.1 for the case y=50 then produced for x the desired time at which the half-maximum signal level was reached.

E. coli ML-35p [2] = assay: Kinetics of permeabilization of the outer bacteria membrane (nitrocefin); type: cell-based, Escherichia coli
Method: as §1, with “model.” for “model. As representative examples, FIGS. 4 and 5 show the graphical evaluation for the kinetic investigation of the permeabilization of the outer E. coli bacteria membrane for the peptides N4 (FIG. 4) and O1 (FIG. 5).”
as §2, §3

Row | Substance | Inner membrane, time to 50% of final signal (E. coli ML-35p [1]; 4 μM peptide) [min] | Inner membrane, time to 50% of final signal (E. coli ML-35p [1]; 8 μM peptide) [min] | Inner membrane, time to 50% of final signal (E. coli ML-35p [1]; 16 μM peptide) [min] | Inner membrane, time to 50% of final signal (E. coli ML-35p [1]; 32 μM peptide) [min] | Outer membrane, time to 50% of final signal (E. coli ML-35p [2]; 4 μM peptide) [min] | Outer membrane, time to 50% of final signal (E. coli ML-35p [2]; 8 μM peptide) [min] | Outer membrane, time to 50% of final signal (E. coli ML-35p [2]; 16 μM peptide) [min] | Outer membrane, time to 50% of final signal (E. coli ML-35p [2]; 32 μM peptide) [min]
1 | KKKVVVVVKKK [S6] | >90 | >90 | >90 | >90 | >90 | >90 | >90 | 31
2 | KLILKRKRKRILIK [A4] | >90 | >90 | >90 | >90 | >90 | >90 | >90 | >90
3 | KRKGKRK [H7, KRKGKRK] | >90 | >90 | >90 | >90 | >90 | >90 | >90 | >90
4 | KRKGSGKRK [H8] | >90 | >90 | >90 | >90 | >90 | >90 | >90 | >90
5 | KRKIKRK [H5, KRKIKRK] | >90 | >90 | >90 | >90 | >90 | >90 | >90 | >90
6 | KRKIL [C8, KRKIL] | >90 | >90 | >90 | >90 | >90 | >90 | >90 | >90
7 | KRKILI [C7, KRKILI] | >90 | >90 | >90 | >90 | >90 | >90 | >90 | >90
8 | KRKILIKRK [H3] | >90 | >90 | >90 | >90 | >90 | >90 | >90 | >90
9 | KRKILIL [C6, KRKILIL] | >90 | >90 | >90 | >90 | >90 | >90 | >90 | >90
10 | KRKILILI [C5] | >90 | >90 | >90 | >90 | >90 | >90 | 26 | 23
11 | KRKILILIGSG [M4] | >90 | >90 | >90 | >90 | >90 | >90 | >90 | >90
12 | KRKILILIK [C4] | >90 | >90 | 53 | 42 | 41 | 37 | 25 | 12
13 | KRKILILIKR [C3] | >90 | >90 | 50 | 45 | 42 | 30 | 21 | 19
14 | KRKILILIKRK [M1] | >90 | >90 | 59 | 42 | 39 | 16 | 17 | 17
15 | KRKILILIKRKR [C2] | >90 | >90 | 64 | 47 | 40 | 27 | 22 | 16
